Data taken from PubChem BioAssay (NCATS).
The shares of active, inactive and inconclusive entries below differ from those in the screen. A potency beside an inconclusive call is a rough fit, not a confirmed value. Active and inactive are the calls of the source. Calls follow the shape of the dose curve; as a rule, active = well fitted curve in the direction sought with a large enough effect; inconclusive = small, poorly fitted or top-dose-only effect, or another doubt; inactive = no such curve, though single readings can be large; an effect the other way counts as inactive or inconclusive.

Tests used:
[1] = qHTS of pediatric cancer cell lines to identify multiple opportunities for drug repurposing: Primary screen for Saos-2 cells (AID 1347097); also: nearly all actives have a fitted effect of over 40% in size; as to activity change, negative = cytotoxic: % is scaled to controls: 0 for no effect and ±100 for the full control effect
Procedure, shortened: (§1)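 CRCs from 8- or 11-point titrations (lowest final 0.59 nM NPC, 0.78 nM MIPE). Cell viability: CellTiter-Glo after 48 h incubation, 15 min room-temperature development, luminescence imaging.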

[2] = qHTS of pediatric cancer cell lines to identify multiple opportunities for drug repurposing: Primary screen for NB1643 cells (AID 1347099); also: nearly all actives have a fitted effect of over 50% in size;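 as to activity change, negative = cytotoxic: plate controls were DMSO neutral control for no effect and bortezomib positive control for full effect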
Procedure, shortened: as §1

[3] = qHTS of pediatric cancer cell lines to identify multiple opportunities for drug repurposing: Primary screen for LAN-5 cells (AID 1347100); details: LAN-5 neuroblastoma viability, CellTiter-Glo luminescence, 48 h; activity change, negative = cytotoxic: at 46 µM (top of the series);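 as to activity change, negative = cytotoxic: plate controls were DMSO neutral control for no effect and bortezomib positive control for full effect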
Procedure, shortened: (§2)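 Viability after 48 h compound treatment at 37C, 500-1,000 cells/well, read as ATP luminescence with CellTiter-Glo. Primary screens used 11-point (MIPE, 0.78 nM-46 µM) or 8-point (NPC, 0.59 nM-46 µM) final concentrations; follow-up screens used 11-point dilutions.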

[4] = qHTS of pediatric cancer cell lines to identify multiple opportunities for drug repurposing: Primary screen for BT-12 cells (AID 1347101); also: nearly all actives have a fitted effect of over 25% in size;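 as to activity change, negative = cytotoxic: plate controls were DMSO for no effect and bortezomib positive control for full effect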
Procedure, shortened: (§3)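 Cells (500-1,000/well) rested 5 h, then received compounds for 48 h; metabolically active cells were measured by CellTiter-Glo luminescence. Final concentrations spanned up to 46 µM (MIPE, 11-point) or 0.59 nM-46 µM (NPC, 8-point) in primary screens, 11-point in follow-ups.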

[5] = qHTS of pediatric cancer cell lines to identify multiple opportunities for drug repurposing: Primary screen for Rh18 cells (AID 1347102); details: Rh18 rhabdomyosarcoma viability, CellTiter-Glo luminescence, 48 h; activity change, negative = cytotoxic: at 46 µM (top of the series); also: nearly all actives have a fitted effect of over 65% in size; as to activity change, negative = cytotoxic: % is scaled to controls: 0 for no effect and ±100 for the full control effect
Procedure, shortened: as §2

[6] = qHTS of pediatric cancer cell lines to identify multiple opportunities for drug repurposing: Primary screen for RD cells (AID 1347104); also: nearly all actives have a fitted effect of over 55% in size;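 as to activity change, negative = cytotoxic: plate controls were DMSO for no effect and bortezomib for full effect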
Procedure, shortened: as §1

[7] = qHTS of pediatric cancer cell lines to identify multiple opportunities for drug repurposing: Primary screen for OHS-50 cells (AID 1347103); also: nearly all actives have a fitted effect of over 40% in size;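 as to activity change, negative = cytotoxic: plate controls were DMSO neutral control for no effect and bortezomib positive control for full effect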
Procedure, shortened: as §3

[8] = qHTS of pediatric cancer cell lines to identify multiple opportunities for drug repurposing: Primary screen for MG 63 (6-TG R) cells (AID 1347105); details: MG 63 (6-TG R) viability, CellTiter-Glo, 48 h; activity change, negative = cytotoxic: at 46 µM (top of the series); also: nearly all actives have a fitted effect of over 50% in size; as to activity change, negative = cytotoxic: % is scaled to controls: 0 for no effect and ±100 for the full control effect
Procedure, shortened: as §1

[9] = qHTS of pediatric cancer cell lines to identify multiple opportunities for drug repurposing: Primary screen for SK-N-SH cells (AID 1347098); details: SK-N-SH viability, CellTiter-Glo luminescence, 48 h; activity change, negative = cytotoxic: at 57 µM (top of the series); also: nearly all actives have a fitted effect of over 65% in size;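 as to activity change, negative = cytotoxic: DMSO served as neutral control and bortezomib at 2.3 µM as positive control; % is scaled to controls: 0 for no effect and ±100 for the full control effect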
Procedure, shortened: as §3

[10] = qHTS of pediatric cancer cell lines to identify multiple opportunities for drug repurposing: Primary screen for control Hh wild type fibroblast cells (AID 1347106); also: nearly all actives have a fitted effect of over 55% in size;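 as to activity change, negative = cytotoxic: % is scaled to controls: 0 for no effect and ±100 for the full control effect; a drop in luminescence marks cytotoxicity and a rise apparent proliferation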
Procedure, shortened: as §2
Potency is read from the fitted curve at half-maximal effect; tags tell the direction and shape of the fitted curve.

CCOc1cc(N2CCC(O)CC2)ccc1Nc1ncc2c(n1)N(C)c1ccccc1C(=O)N2C
active: Potency [1] 0.118 µM | Potency [3] 0.0935 µM | Potency [4] 0.0863 µM | Potency [6] 0.148 µM
inconclusive: Potency [2] 0.148 µM [cytotoxic, full curve] | Potency [5] 10.5 µM [cytotoxic, partial curve]

CCOc1cc(C=C2C(=O)N(c3ccccc3)N=C2C)cc(Cl)c1OCC(=O)OC
inconclusive: Potency [2] 26.4 µM [cytotoxic, single point] | Potency [5] 13.2 µM [cytotoxic, partial curve] | Potency [7] 24.3 µM [cytotoxic, partial curve] | Potency [8] 23.5 µM [cytotoxic, partial curve]
inactive: Potency [1] | Potency [4]

C#C[C@]1(O)CC[C@@H]2[C@@H]3CCC4=CC(=O)CC[C@@H]4[C@H]3CC[C@@]21CC
inactive: Potency [1]
inconclusive: Potency [9] 42.9 µM [cytotoxic, single point] | Potency [7] 7.69 µM [cytotoxic, partial curve, poor fit]

NC1(C(=O)N[C@@H](CCO)c2ccc(Cl)cc2)CCN(c2ncnc3[nH]ccc23)CC1
inconclusive: Potency [4] 27.3 µM [cytotoxic, partial curve] | Potency [7] 0.0769 µM [cytotoxic, full curve] | Potency [6] 0.132 µM [cytotoxic, full curve]
active: Potency [1] 5.9 µM | Potency [2] 1.87 µM | Potency [8] 7.43 µM
inactive: Potency [10]

CCc1cc2c(cc1N1CCC(N3CCOCC3)CC1)C(C)(C)c1[nH]c3cc(C#N)ccc3c1C2=O
inconclusive: Potency [1] 18.7 µM [cytotoxic, partial curve, poor fit] | Potency [2] 0.001 µM [cytotoxic, full curve, poor fit] | Potency [3] 14.8 µM [cytotoxic, partial curve, poor fit] | Potency [7] 9.68 µM [cytotoxic, partial curve, poor fit]

CC(=O)N1CCN(c2ccc(OCc3nn(C)c(C)c3-c3cccc4c(CCCOc5cccc6ccccc56)c(C(=O)O)n(Cc5cccnc5)c34)cc2)CC1
active: Potency [1] 3.72 µM | Potency [2] 0.209 µM | Potency [3] 0.148 µM | Potency [6] 1.66 µM | Potency [10] 0.526 µM

NC[C@H]1O[C@H](O[C@H]2[C@@H](O)[C@@H](O[C@H]3O[C@H](CO)[C@@H](O)[C@H](N)[C@@H]3O)[C@H](N)C[C@@H]2N)[C@H](N)C[C@H]1O
inactive: Potency [1] | Potency [2] | Potency [5]

CCOc1ccc(Cc2nccc3cc(OCC)c(OCC)cc23)cc1OCC
active: Potency [4] 6.17 µM
inconclusive: Potency [1] 26.6 µM [cytotoxic, single point] | Potency [2] 23.7 µM [cytotoxic, single point] | Potency [3] 16.8 µM [cytotoxic, partial curve, poor fit] | Potency [5] 23.7 µM [cytotoxic, partial curve, poor fit] | Potency [6] 15 µM [cytotoxic, partial curve, poor fit]

O=S(=O)(O)c1ccc2nc(-c3ccccc3)[nH]c2c1
inconclusive: Potency [1] 15 µM [cytotoxic, single point] | Potency [2] 33.5 µM [cytotoxic, single point] | Potency [3] 33.5 µM [cytotoxic, single point] | Potency [4] 15.5 µM [cytotoxic, partial curve] | Potency [5] 29.9 µM [cytotoxic, single point] | Potency [7] 24.6 µM [cytotoxic, partial curve] | Potency [6] 23.7 µM [cytotoxic, single point] | Potency [8] 10.6 µM [cytotoxic, partial curve, poor fit]

CC/C(=C(/CC)c1ccc(O)cc1)c1ccc(O)cc1
inconclusive: Potency [1] 21.1 µM [cytotoxic, single point] | Potency [2] 11.9 µM [cytotoxic, partial curve] | Potency [4] 21.9 µM [cytotoxic, single point] | Potency [5] 13.3 µM [cytotoxic, partial curve] | Potency [6] 26.6 µM [cytotoxic, single point] | Potency [8] 10.6 µM [cytotoxic, partial curve, poor fit]

CCOc1ccc2nc3cc(N)ccc3c(N)c2c1
inactive: Potency [2] | Potency [7]
inconclusive: Potency [1] 23.7 µM [cytotoxic, single point] | Potency [3] 33.5 µM [cytotoxic, single point] | Potency [5] 33.5 µM [cytotoxic, single point]
active: Potency [6] 23.7 µM

CC(C)c1cnn2c(NCc3ccccc3)cc(N[C@@H](CO)[C@H](O)CO)nc12
active: Potency [1] 0.296 µM | Potency [4] 0.344 µM | Potency [7] 0.273 µM
inconclusive: Potency [2] 0.0935 µM [cytotoxic, full curve] | Potency [3] 0.166 µM [cytotoxic, full curve] | Potency [5] 0.264 µM [cytotoxic, full curve, poor fit] | Potency [8] 0.296 µM [cytotoxic, full curve]

COC1=C(OC)C(=O)C(CC=C(C)CCC=C(C)CCC=C(C)CCC=C(C)CCC=C(C)CCC=C(C)CCC=C(C)CCC=C(C)CCC=C(C)CCC=C(C)C)=C(C)C1=O
inactive: Potency [1] | Potency [2] | Potency [4]

CS(=O)(=O)c1ccc(C(=O)Nc2ccc(Cl)c(-c3ccccn3)c2)c(Cl)c1
inconclusive: Potency [1] 2.35 µM [cytotoxic, partial curve, poor fit] | Potency [2] 23.5 µM [cytotoxic, single point] | Potency [4] 43.2 µM [cytotoxic, single point] | activity change, negative = cytotoxic [8] -31.9% [cytotoxic]

Clc1ccc2c(c1)C(N1CCNCC1)=Nc1ccccc1O2
inconclusive: Potency [1] 5.9 µM [cytotoxic, partial curve] | Potency [9] 10.9 µM [cytotoxic, partial curve, poor fit] | Potency [7] 3.09 µM [cytotoxic, partial curve, poor fit]
inactive: Potency [10]

NC(=NCCCCCCN=C(N)/N=C(\N)Nc1ccc(Cl)cc1)/N=C(\N)Nc1ccc(Cl)cc1
inconclusive: Potency [2] 29.9 µM [cytotoxic, single point] | Potency [3] 26.6 µM [cytotoxic, single point] | Potency [5] 18.8 µM [cytotoxic, single point] | Potency [7] 34.7 µM [cytotoxic, single point] | Potency [8] 33.5 µM [cytotoxic, single point]
active: Potency [1] 26.6 µM | Potency [4] 9.78 µM | Potency [6] 26.6 µM

C=Cc1c(C)c2cc3nc(cc4[nH]c(cc5nc(cc1[nH]2)C(C)=C5CCC(=O)O)c(CCC(=O)OC)c4C)[C@@]1(C)C3=CC=C(C(=O)OC)[C@H]1C(=O)OC
inconclusive: Potency [2] 0.0526 µM [cytotoxic, full curve, poor fit] | Potency [5] 0.235 µM [cytotoxic, full curve] | Potency [10] 0.209 µM [cytotoxic, full curve]
active: Potency [1] 4.69 µM | Potency [3] 0.0526 µM | Potency [4] 0.344 µM | Potency [8] 1.18 µM

CCCN(CCC)CCc1cccc2c1CC(=O)N2
inconclusive: Potency [1] 11.9 µM [cytotoxic, partial curve, poor fit]
inactive: Potency [9] | Potency [8]

CC(C)c1cnn2c(NCc3ccccc3)cc(NCCCCCCN)nc12
active: Potency [1] 23.5 µM | Potency [6] 18.7 µM | Potency [8] 5.9 µM
inconclusive: Potency [9] 27.1 µM [cytotoxic, partial curve] | Potency [5] 26.4 µM [cytotoxic, single point] | Potency [10] 4.18 µM [cytotoxic, full curve, poor fit]

COc1ccc(CCN2CCC(Nc3nc4ccccc4n3Cc3ccc(F)cc3)CC2)cc1
inconclusive: Potency [1] 29.9 µM [cytotoxic, single point] | Potency [2] 33.5 µM [cytotoxic, single point] | Potency [4] 27.6 µM [cytotoxic, single point] | Potency [5] 21.1 µM [cytotoxic, single point] | Potency [10] 29.9 µM [cytotoxic, single point]

CCC(=O)c1ccc2c(c1)N(CCCN(C)C)c1ccccc1S2
active: Potency [7] 30.9 µM
inactive: Potency [8]
inconclusive: Potency [1] 26.6 µM [cytotoxic, single point] | Potency [3] 21.1 µM [cytotoxic, partial curve, poor fit] | Potency [4] 21.9 µM [cytotoxic, single point] | Potency [5] 29.9 µM [cytotoxic, single point] | Potency [6] 29.9 µM [cytotoxic, single point]

CCN1CCc2nc(N)oc2CC1
inactive: Potency [1] | Potency [4]

O=S1(=O)OC(c2ccc(O)cc2)(c2ccc(O)cc2)c2ccccc21
inactive: Potency [1] | Potency [3] | Potency [4] | Potency [6] | Potency [8]

Cc1cc([C@@H](C)Nc2ccccc2C(=O)O)c2nc(N3CCOCC3)cc(=O)n2c1
inconclusive: Potency [4] 55.9 µM [cytotoxic, partial curve]
active: Potency [1] 9.59 µM | Potency [3] 34 µM | Potency [8] 1.71 µM
